Measured values published in US20250042995A1 (AKESO BIOPHARMA, published 2025).

Columns and labels:
[1] = biological target: T1, human LAG3 (full length) expressed on cells (human, UniProt P18627 23-525); test: flow cytometry on 293T-LAG3 cells
T1 construct: whole, on cells; also called huLAG3FL
T1 sequence (looked up): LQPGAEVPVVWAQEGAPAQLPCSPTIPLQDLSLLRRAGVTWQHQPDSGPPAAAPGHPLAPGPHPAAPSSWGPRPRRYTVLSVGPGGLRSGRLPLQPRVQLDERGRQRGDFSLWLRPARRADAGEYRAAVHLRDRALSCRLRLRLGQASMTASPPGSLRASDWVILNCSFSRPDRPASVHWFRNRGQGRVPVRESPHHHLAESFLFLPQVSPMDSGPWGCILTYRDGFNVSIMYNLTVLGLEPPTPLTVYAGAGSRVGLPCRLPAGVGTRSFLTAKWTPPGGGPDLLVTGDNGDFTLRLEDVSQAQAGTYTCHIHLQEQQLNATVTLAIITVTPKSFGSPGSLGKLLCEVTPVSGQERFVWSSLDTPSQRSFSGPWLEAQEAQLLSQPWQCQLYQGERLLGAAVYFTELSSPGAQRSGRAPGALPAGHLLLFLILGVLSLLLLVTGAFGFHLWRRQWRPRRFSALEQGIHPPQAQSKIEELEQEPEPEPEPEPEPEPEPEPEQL
Method: After centrifugation and washing several times with 1% PBSA, 100 μL of FITC goat anti-human IgG (purchased from Jackson, Cat. No. 109-095-098) (diluted at a 1:500 ratio) was added into each tube, and the mixture was incubated on ice in the dark for 40 min. After washing once with 1% PBSA, 200 μL of 1% PBSA was added to resuspend the cells. Fluorescence signals were detected with FITC channel on a flow cytometer.

human LAG3-mFc [2] = biological target: T2, human LAG3-mFc (human, UniProt P18627 23-450); test: ELISA, human LAG3-mFc coated 2 ug/mL
T2 construct: also called antigen human LAG3-mFc; not shown: mFc: Fc protein fragment of mouse IgG
T2 sequence (looked up): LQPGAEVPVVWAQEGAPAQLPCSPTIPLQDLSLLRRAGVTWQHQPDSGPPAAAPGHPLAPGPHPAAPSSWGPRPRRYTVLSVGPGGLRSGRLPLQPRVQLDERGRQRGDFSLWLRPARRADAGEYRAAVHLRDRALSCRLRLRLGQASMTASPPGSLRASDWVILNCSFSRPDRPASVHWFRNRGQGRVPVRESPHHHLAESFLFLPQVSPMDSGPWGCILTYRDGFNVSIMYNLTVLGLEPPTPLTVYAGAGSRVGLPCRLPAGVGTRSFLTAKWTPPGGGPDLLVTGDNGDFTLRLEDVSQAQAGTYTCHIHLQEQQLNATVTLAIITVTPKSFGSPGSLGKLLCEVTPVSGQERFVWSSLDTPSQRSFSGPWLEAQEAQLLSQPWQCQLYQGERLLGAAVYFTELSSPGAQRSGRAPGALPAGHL
Method: Then the ELISA plate coated with the antigen was washed once with PBST and then blocked with a PBS solution containing 1% BSA as a blocking solution at 37° C. for 2 h. After blocking, the ELISA plate was washed 3 times with PBST. The ELISA plate containing the test antibodies was incubated at 37° C. for 30 min and then washed 3 times with PBST. After washing, a working solution of an HRP-labeled goat anti-human IgG (H+L) (Jackson, Cat. No. 109-035-088) secondary antibody diluted at a ratio of 1:5000 was added, and then the plate was incubated at 37° C. for 30 min. After incubation, the plate was washed 4 times with PBST, TMB (Neogen, 308177) was added for chromogenesis in the dark for 5 min, and then a stop solution was added to terminate the chromogenic reaction. The ELISA plate was put into an ELISA plate reader immediately, and the OD value of each well in the ELISA plate was read at 450 nm. The data were analyzed and processed by SoftMax Pro 6.2.1.

human LAG3-mFc [3] = biological target: T2, human LAG3-mFc; test: competitive flow cytometry: antibody titrated against 3 nM LAG3-mFc binding to MHC II on Raji cells
Method: Raji cells (medium: 1640+10% FBS) (Cell Resource Center, Shanghai Institutes for Biological Sciences, Chinese Academy of Sciences, Cat. No. TCHu 44) were added into EP tubes at 300,000 cells per sample. 1000 μL of 1% PBSA (PBS containing 1% BSA) was added. The mixture was centrifuged at 600×g for 5 min, and the supernatant was discarded. […] The mixture was mixed well and pre-incubated on ice for 30 min. 100 μL of the pre-incubated mixture of antibody and protein was added to the sample. The mixture was mixed well and incubated on ice in the dark for 1 h; 200 μL of 1% PBSA was added, and the mixture was centrifuged at 600×g for 5 min, followed by removal of the supernatant, and then washed twice; 100 μL of an APC anti mouse antibody (purchased from Biolegend, Cat. No. 405308) (diluted at a 1:400 ratio) was added, and the mixture was mixed well and incubated on ice in the dark for 40 min; 200 μL of 1% PBSA was added, and the mixture was centrifuged at 600×g for 5 min, followed by removal of the supernatant; 200 μL of Washing Buffer was added into each tube to resuspend the cells, and then the suspension was transferred to a sample loading tube for testing on a flow cytometer.

EC50 [1]: 4.93 nM
EC50 (human LAG3-mFc [2]): 0.131 nM
EC50 (human LAG3-mFc [3]): 1.34 nM
B1: H7L8(hG4WT) (antibody, human IgG4 S228P, kappa)
heavy: QVQLQQWGAGLLKPSETLSLTCAVYGGSISDYYWNWIRQPPGKGLEWIGEINHRGTTNSNPSLKSRVTLSLDTSKNQFSLKLRSVTAADTAVYYCAFGYSDYEYDWFDPWGQGTLVTVSSASTKGPSVFPLAPCSRSTSESTAALGCLVKDYFPEPVTVSWNSGALTSGVHTFPAVLQSSGLYSLSSVVTVPSSSLGTKTYTCNVDHKPSNTKVDKRV[skipping human IgG4 Fc with S228P (EU numbers)]
light: EIVLTQSPATLSLSPGERATLSCRASQTISSYLAWYQQKPGQAPRLLIYDASNRATGIPARFSGSGSGTDFTLTISSLEPEDFAVYYCQQRSNWPITFGQGTNLEIKRTVAAPSVFIFPPSDEQLKSGTASVVCLLNNFYPREAKVQWKVDNALQSGNSQESVTEQDSKDSTYSLSSTLTLSKADYEKHKVYACEVTHQGLSSPVTKSFNRGEC
notes: Humanized anti-LAG3 IgG4 (Ig gamma-4 chain C region) with human kappa constant region
